# According to paper PMC10668032:
# The other results are listed elsewhere or left out. At the low end of the ranking, values are background and their order means little.
# Molecular target: SIX1-Q177R homeodomain (UniProt Q15475)
# Assay: universal protein binding microarray
# Conditions: Universal all-10-mer PBM (8x60K, AMADID 030236), 300 nM GST-tagged protein, Alexa Fluor 488 anti-GST; buffer, salt, pH and temperature not stated; high values mean tight binding; most listed sequences are background and not binding sites; double strand, one strand shown
row,Sequence,binding signal [E-score]
1,CACGACCG,0.225
2,CTGGTCGC,-0.0976
3,CAGGCTAA,0.0625
4,CGCAGTGA,-0.114
5,GTCGGTGA,0.0757
6,CCATATCC,-0.0492
7,AGTGCGGC,-0.143
8,CGGACGAG,-0.148
9,AACCCACT,0.133
10,ACTCGCCT,-0.071
11,GATGGAGA,-0.0397
12,CGAGCGAG,-0.0875
13,TCTTGAAA,-0.147
14,GACAAAGC,-0.129
15,CACTCAAG,0.264
16,GACCACGA,-0.219
17,GGCTCAAC,-0.09
18,ACCGTAAA,0.0506
19,GCGAGGGA,7e-05
20,AAGCCGGA,0.0116
21,ACTCAGGA,-0.0406
22,TAAACCAA,-0.0514
23,ACACCATG,0.47
24,ATGTGATC,-0.167
25,CCGGACCC,0.11

row,Sequence,binding signal [E-score]
1,GCAACGGC,0.00356
2,CCAGCAGG,-0.194
3,CGACACCC,0.488
4,AACCAACC,-0.109
5,AAAACCAC,-0.0815
6,ACCCCCCT,0.302
7,GTTACATA,0.0461
8,AAAGATAT,-0.058
9,ACACGGCC,0.382
10,CAGGAGTA,0.125
11,ACTTTAGC,-0.23
12,GAGGGTCA,0.0574
13,ACCGCGAC,0.075
14,CCCTTCCG,-0.0208
15,GAATGACA,0.163
16,CTTCACCA,-0.108
17,CCATCCCA,0.0203
18,GCTCCGAC,0.0832
19,CACGATAG,0.102
20,GGAGACAA,-0.015
21,AAACACTT,0.252
22,CCAACACG,0.377
23,GGGTGAAA,0.104
24,GGTTACAC,0.454
25,ACGACTTG,0.0231

row,Sequence,binding signal [E-score]
1,ACCCTCCA,0.175
2,CCTTTTAG,-0.176
3,CCGTCTCG,-0.0499
4,AACGCTTG,-0.13
5,ACTTAGCA,-0.11
6,AGGGAACA,0.017
7,CCTGCAGG,-0.0104
8,ATCTACGC,-0.0231
9,CAAATTTG,-0.202
10,GGCGCGAA,-0.0172
11,CCGACTGC,-0.116
12,CGCTGTTC,-0.105
13,GGACCTGA,-0.0389
14,GGGGATAA,0.00662
15,CGCTCAAC,-0.108
16,ACTCAACC,0.014
17,ACCAATAA,-0.083
18,CCCCGCCA,0.148
19,TCTCGTCA,-0.217
20,ACCATAGC,0.0649
21,CGCTGGAC,-0.0295
22,GGATGTTA,0.105
23,CACGAGAC,0.154
24,CCAAACCG,0.0512
25,GTATATAA,0.0108

row,Sequence,binding signal [E-score]
1,CGCAACAG,-0.208
2,AACCAATC,-0.0628
3,CAAGGGCC,-0.0742
4,AGGTCAGA,-0.158
5,ACGCACCG,0.177
6,AAGGGTAG,0.0837
7,CCCACGGC,0.0525
8,GAATTAAA,-0.203
9,CGACCATA,-0.0754
10,CAAGTCCG,-0.117
11,TAGCCCTA,-0.117
12,GAAAAAAC,-0.235
13,GCCAACGA,-0.223
14,GAAGTGGA,0.183
15,AAATTAGA,-0.291
16,AGGGCATA,-0.168
17,AAAACGTC,-0.258
18,ATATGGCG,-0.021
19,CTTAGTTA,0.0484
20,AGAGCTAT,-0.00673
21,AGCTAGCC,-0.198
22,AAGATTAC,-0.0274
23,GGCTGTTA,-0.144
24,AATTGACT,-0.0648
25,ACTGACCG,-0.217

row,Sequence,binding signal [E-score]
1,AAGAATAG,-0.0491
2,ACGAATCT,-0.0605
3,AAACACTC,0.321
4,CGGCTAGC,-0.125
5,AATCCGCA,0.0515
6,GCCGTTAA,-0.16
7,ACACATGT,0.128
8,AAAATTGG,-0.227
9,TCTGCGAA,-0.0447
10,CGAAGCCG,-0.17
11,GCAGAGAA,-0.218
12,AACACAAA,0.117
13,AGGGGCCA,-0.0565
14,AGTGGGTC,0.102
15,ATGCAGAG,0.0955
16,TATCTGGA,-0.174
17,GACGAACA,0.103
18,CATCGAGG,0.0851
19,ACGCTCCG,-0.0822
20,AAGAGATA,-0.155
21,CGCTGACG,-0.109
22,ACTTGTAT,0.0598
23,CGGCAACC,-0.12
24,CCTTCTCG,0.0593
25,GGCGAGAA,-0.221

row,Sequence,binding signal [E-score]
1,GAACATCC,0.0607
2,AAGGCATT,-0.0796
3,AATCGTCA,0.0402
4,GTTACTAA,-0.011
5,TAGCATAA,0.01
6,CTTAATTC,-0.139
7,GAATACCC,0.159
8,GCTGATCA,-0.167
9,GGAGACGA,-0.08
10,CCGGAGAA,-0.0526
11,AATCTCTG,0.0428
12,AAACTTTG,-0.0062
13,CATCGTAC,-0.0343
14,CGTTTTGC,-0.256
15,CAAGTAGC,-0.211
16,CGTGTGAG,0.276
17,CGCCAAGA,-0.0727
18,GACTTTGA,-0.162
19,CTTTACGC,-0.0824
20,ATGGGGCG,0.00015
21,AGACTATG,-0.0941
22,CCCGCACC,0.197
23,AGTAGTAA,-0.0536
24,GATTATGA,-0.117
25,CGACACCG,0.491

row,Sequence,binding signal [E-score]
1,AAACCCAG,0.219
2,CTTACTCC,0.194
3,CTAAGTTA,-0.164
4,CCGTATAA,0.0201
5,CAACAGTG,0.106
6,TAGCACGA,0.0446
7,AATTTCGC,-0.195
8,CGTTGAGC,0.025
9,AATGCTAA,-0.17
10,GAAGTACA,0.149
11,AGCCCCAG,-0.065
12,GATCAGTA,0.0077
13,CCTAAGCA,0.0372
14,AGGGAACC,-0.0166
15,AAAGATCA,-0.157
16,AGAAGGAA,-0.158
17,AAATGGCC,-0.238
18,CTAACTAG,0.0599
19,TATAGCGA,-0.156
20,ACTGATGC,-0.0565
21,CGCGGCAG,-0.0453
22,AACTTAAT,-0.121
